Source: PubChem BioAssay (Tox21)
The shares of active, inactive and inconclusive entries below differ from those in the screen. Potencies beside an inconclusive call are fits to weak or partial responses and may not hold up. The source holds several records for some structures; these can differ, active in one and inactive in another. Active and inactive are the calls of the source. Calls follow the shape of the dose curve; as a rule, active = well fitted cell-killing curve with a large enough effect in the repeat runs; inconclusive = weak or mixed curves, or effect the other way; inactive = no such curve, though single readings can be large or run the other way.

Assay: qHTS assay to identify small molecule antagonists of the peroxisome proliferator-activated receptor gamma (PPARg) signaling pathway - cell viability counter screen (AID 743194); also: nearly all actives have a fitted effect of over 55% in size
Conditions: PPARg-bla HEK293H viability, CellTiter-Glo luminescence, 17 h; Potency: co-treated with 50 nM rosiglitazone unless noted; activity change, negative = cytotoxicity: at 62.6 µM (top of the series), co-treated with 50 nM rosiglitazone unless noted
Text: U.S. Tox21 Program National Center for Advancing Translational Sciences [NCATS] NIH Chemical Genomics Center [NCGC] U.S. Environmental Protection Agency [EPA] National Institutes of Environmental Health Sciences [NIEHS] National Toxicology Program [NTP] U.S. Food and Drug Administration [FDA] Tox21 Assay Overview: The peroxisome proliferator-activated receptors (PPARs) are lipid-activated transcription factors of the nuclear receptor superfamily with three distinct subtypes namely PPAR alpha, PPAR delta (also called PPAR beta) and PPAR gamma (PPARg). All these subtypes heterodimerize with Retinoid X receptor (RXR) and these heterodimers regulate transcription of various genes. PPAR-gamma receptor (glitazone receptor) is involved in the regulation of glucose and lipid metabolism. To identify the compounds that activate PPAR-gamma signaling, GeneBLAzer PPAR gamma UAS-bla HEK293H cell line (Invitrogen, Carlsbad, CA, USA) containing a beta-lactamase reporter gene under the control of an Upstream Activator Sequence (UAS) was used to screen the Tox21 compound library. The cytotoxicity of the Tox21 compound library against the PPARg-bla cell line was tested in parallel by measuring the cell viability using CellTiter-Glo assay in the same wells.
Tox21 Assay Protocol Summary: PPARg-bla cells were dispensed at 3000 cells/5uL/well in 1536-well black wall/clear bottom plates using a Multidrop Combi (Thermo Fisher Scientific, Waltham, MA) dispenser. After the assay plates were incubated at 37 C and 5% CO2 for 5 h, 23 nL of compounds dissolved in DMSO, positive controls or DMSO only was transferred to the assay plate by a Pintool station (Kalypsys, San Diego, CA), followed by addition of 1ul Rosiglitazone (50 nM, final concentration in the wells). The assay plates were incubated at 37 C for 17 h, and then 1 uL of LiveBLAzerTM B/G FRET substrate was added using a Bioraptr Flying Reagent Dispenser (FRD) workstation (Beckman Coulter, Indianapolis, IN, USA). The assay plates were incubated at room temperature for 1 h and fluorescence intensity was measured by an Envision plate reader (PerkinElmer, Shelton, CT). For cell viability readout that measures cytotoxicity, 4 ul/well of CellTiter-Glo reagent was added into the assay plates using a Flying Reagent Dispenser. After 30 min incubation at room temperature, the luminescence intensity in the plates was measured using a ViewLux plate reader (PerkinElmer).
% is scaled to controls: 0 for no effect and ±100 for the full control effect; potency is read from the fitted curve at half-maximal effect; tags tell the direction and shape of the fitted curve.

**Q.** For `O=[N+]([O-])c1ccccc1O`, which Potency is on record?
**A.** inactive

**Q.** With `O=S(=O)(O)F` as the molecule, how does the Potency read?
**A.** inconclusive: 1.08 µM [cytotoxic, full curve, poor fit]

**Q.** For `O=C(Cl)c1ccccc1`, which Potency is on record?
**A.** inconclusive: 2.52 µM [cytotoxic, full curve, poor fit]

**Q.** Which Potency does the source give for `COP(=S)(OC)Oc1cc(Cl)c(Cl)cc1Cl` here?
**A.** inconclusive: 4.33 µM [cytotoxic, full curve, poor fit]

**Q.** Which Potency does the source give for `CC(C)(O)C(=O)Nc1ccc([N+](=O)[O-])c(C(F)(F)F)c1` here?
**A.** inconclusive: 20.1 µM [cytotoxic, partial curve, poor fit]

**Q.** Which Potency does the source give for `Oc1cc(Cl)c(Cl)c(Cl)c1Cl` here?
**A.** inconclusive: 1.2 µM [cytotoxic, full curve]

**Q.** Which Potency does the source give for `NN=C(N)N` here?
**A.** inactive

**Q.** With `Clc1ccc(Cl)c(Cl)c1` as the molecule, how does the Potency read?
**A.** inconclusive: 0.425 µM [rising, full curve, poor fit]

**Q.** For `NC(=O)C(Cl)(Cl)Cl`, which Potency is on record?
**A.** inactive

**Q.** For `O=[N+]([O-])O`, which Potency is on record?
**A.** inconclusive: 3.01 µM [cytotoxic, partial curve, poor fit]

**Q.** Which Potency does the source give for `IC(I)=C(I)I` here?
**A.** active: 9.77 µM

**Q.** Which Potency does the source give for `CCN(CC)C(=S)[S-].CCN(CC)C(=S)[S-].[Zn+2]` here?
**A.** active: 2.17 µM

**Q.** Which Potency does the source give for `O=S(=O)(c1ccc(Cl)cc1)c1cc(Cl)c(Cl)cc1Cl` here?
**A.** inconclusive: 6.92 µM [cytotoxic, full curve, poor fit]

**Q.** Which Potency does the source give for `COc1ccc(OC)c(CC(C)N)c1` (stereo not given) here?
**A.** inactive

**Q.** With `O=C1c2ccccc2C(=O)C1C(=O)C(c1ccccc1)c1ccccc1` as the molecule, how does the Potency read?
**A.** inconclusive: 15 µM [cytotoxic, partial curve, poor fit]

**Q.** For `OCCSSCCO`, which Potency is on record?
**A.** inactive

**Q.** Which Potency does the source give for `CC(C)=CC1C(C(=O)OCN2C(=O)C3=C(CCCC3)C2=O)C1(C)C` (stereo not given) here?
**A.** inconclusive: 0.49 µM [rising, full curve, poor fit]

**Q.** Which Potency does the source give for `O=NN1CCCCCC1` here?
**A.** inactive

**Q.** Which Potency does the source give for `Cc1ccc(N=CN(C)C=Nc2ccc(C)cc2C)c(C)c1` here?
**A.** inconclusive: 54.9 µM [cytotoxic, partial curve, poor fit]

**Q.** For `N#Cc1nn(-c2c(Cl)cc(C(F)(F)F)cc2Cl)c(N)c1S(=O)C(F)(F)F` (stereo not given), which Potency is on record?
**A.** inconclusive: 31.1 µM [cytotoxic, partial curve, poor fit]

**Q.** For `ClCCBr`, which Potency is on record?
**A.** inactive

**Q.** With `C[C@H]1CCC[C@H](O)CCCCCc2cc(O)cc(O)c2C(=O)O1` as the molecule, how does the Potency read?
**A.** inconclusive: 62.1 µM [cytotoxic, single point]

**Q.** For `CCCOC(=O)c1ccccc1C(=O)OCCC`, which Potency is on record?
**A.** inconclusive: 0.111 µM [rising, full curve, poor fit]

**Q.** With `O=[N+]([O-])C(Br)Br` as the molecule, how does the Potency read?
**A.** inconclusive: 49.1 µM [cytotoxic, partial curve, poor fit]

**Q.** Which Potency does the source give for `O=C(O)CC(O)(CC(=O)O)C(=O)O` here?
**A.** inconclusive: 2.78 µM [cytotoxic, full curve, poor fit]

**Q.** Which Potency does the source give for `CCC(OC(C)=O)C(CC(C)NC)(c1ccccc1)c1ccccc1` (stereo not given) here?
**A.** inconclusive: 69.2 µM [cytotoxic] [setting not given]

**Q.** For `O=C(O)C1(c2ccc3c(c2)OC[C@H](Cc2ccc(-c4ccccc4)cc2)[C@H]3O)CCCC1`, which Potency is on record?
**A.** active: 43.6 µM

**Q.** For `O=[N+]([O-])c1c2ccccc2cc2ccccc12`, which Potency is on record?
**A.** inconclusive: 1.72 µM [cytotoxic, full curve, poor fit]

**Q.** Which Potency does the source give for `Cc1ccccc1C(=O)Nc1cccc(OC(C)C)c1` here?
**A.** inconclusive: 0.0195 µM [cytotoxic, full curve, poor fit]

**Q.** With `CCC(CC)Nc1c([N+](=O)[O-])cc(C)c(C)c1[N+](=O)[O-]` as the molecule, how does the Potency read?
**A.** inconclusive: 2.22 µM [cytotoxic, full curve, poor fit]

**Q.** With `CCCCNP(N)(N)=S` as the molecule, how does the Potency read?
**A.** inactive

**Q.** With `NNc1ccccc1` as the molecule, how does the Potency read?
**A.** inconclusive: 27.5 µM [cytotoxic, partial curve, poor fit]

**Q.** For `CN(C)C(=S)[S-].CN(C)C(=S)[S-].[Cu+2]`, which Potency is on record?
**A.** active: 2.12 µM

**Q.** With `CCCCOC(=O)COC(=O)c1ccccc1C(=O)OCCCC` as the molecule, how does the activity change, negative = cytotoxicity read?
**A.** inconclusive: 40%

**Q.** Which Potency does the source give for `CCOCN(C(=O)CCl)c1c(C)cccc1CC` here?
**A.** inactive

**Q.** With `Cc1ccc(N)cc1Cl` as the molecule, how does the Potency read?
**A.** inactive

**Q.** Which Potency does the source give for `c1ccc(N=Nc2ccccc2)cc1` here?
**A.** inconclusive: 0.0158 µM [rising, full curve, poor fit]

**Q.** For `Cl/C=C\C[N+]12CN3CN(CN(C3)C1)C2`, which activity change, negative = cytotoxicity is on record?
**A.** inconclusive: -30.4% [cytotoxic]

**Q.** For `Oc1ccc([C@H]2CNCc3c2ccc(O)c3O)cc1O`, which Potency is on record?
**A.** inactive

**Q.** For `CCCCCC[N+](=O)[O-]`, which Potency is on record?
**A.** inconclusive: 34.8 µM [rising, partial curve, poor fit]
